Reference: the RNAGym collection of RNA variant scans (doi:10.7554/elife.90254)
The source gives no read counts; variants with many changes may rest on few reads.

B1: LINE1-full (parent)
chain: UACGUAGGUGGUUUUCCCCUGAUAGUGCUAAGGGGGCCUGGAAGUUUGGACUGGGCAGAGCUCAACACAGCGUGGCAAAGUGGCUGUGGCUAGACUGCCUCUCUGGAUUCCUCGUCACUCAGCAGGGCAUCUCUGAGAGAAAUGCC

Variants of: B1
Test: self-cleavage, relative activity (ratio to wild type); higher = more cleavage; in vitro, sequencing; the parent is a self-cleaving ribozyme

| Variant | self-cleavage |
| --- | --- |
| A42G A65U U109C | 0.45 |
| A42G C118U A140U | 1.41 |
| A42U C63A A77G U100A C101U U102C A140G | 0.06 |
| A42G U46C C118U A121C C123U A124U | 1.96 |
| A43G A65G U112A | 0 |
| A42G A67G A141G | 0.21 |
| A43G A59G A78G | 0.16 |
| G40A G44A C120U | 0.88 |
| U39G G48A U96C | 0.09 |
| A42U U62A A77G U102C A117U U143C | 0.03 |
| G40U A42G U45C A136G | 0.99 |
| A42G U100A A117G A129G | 2.63 |
| A43G A107G A142G | 0.66 |
| A42U U104C A138G | 2.02 |
| A42G A92G U119G | 0 |
| G41U U91C A141G | 0.73 |
| A42G A78G U132C A140G | 2.08 |
| U39C A138G A140G | 0.97 |
| A42G A77G U81C C118U | 1.7 |
| A42G A65U U104A A124U | 0.05 |
| A42G A67C U115C | 0 |
| G41U A42G U108C C123U A136G | 1.2 |
| A43G C51U A142G | 1.31 |
| A42G U96C U112C | 0.18 |

| Variant | self-cleavage |
| --- | --- |
| A42G C51U A140G | 0.89 |
| U39C A77U A138U | 1.49 |
| U39C U62C A65G C123U | 0.2 |
| A42G U81A U132C | 2.52 |
| A43G A64G U143C | 0.25 |
| A43C U100A A124U | 0.71 |
| U39C U96G A142G | 0 |
| G40A A92G U100C | 0.09 |
| G40A U62C A69G U115C | 0.08 |
| U39C A69G A77U | 0.12 |
| A43G A57G C101U | 0.59 |
| A42G U52C A140G | 1.21 |
| A42G U91C U119C | 1.5 |
| U39C A79G U91C U143C | 0 |
| U39C U73C A94G G105A | 0.53 |
| A42U A43G U112C A141U | 0.25 |
| U39G U52C A78G | 1.53 |
| A43G A129U U130C | 1.09 |
| A42G A79C A138G | 1.62 |
| A42G U104C U108C | 1.31 |
| A42G U112C A121G | 1.25 |
| A43C U104C A107G | 1.97 |
| A42G G54U G55A U62C C95U A129G | 0.02 |
| U39C A69G U96A G114U | 0 |

| Variant | self-cleavage |
| --- | --- |
| A43C U62C A117C U132C | 0.14 |
| A43G A57G A78G U96C | 1.02 |
| U39C U45C A65G C90U U115A | 0 |
| A42U C61U U87C | 0.04 |
| A42G G55C U134C | 0 |
| A42U A77U A141G | 1.04 |
| A42G A57U A79G U130C | 0 |
| U39C A79G U143G | 1.96 |
| A42G U47C U108C | 2.22 |
| A42U U46C C95U U96A G97C A138G | 0.01 |
| A42G A65C U130G | 0 |
| A42G A64U U96C A136G | 0.1 |
| G40U A77G U115A G127A | 2.39 |
| A42G U81A U100C | 2.87 |
| G41U A77U U112C A136G | 2.18 |
| A42G A43G U85A U108C | 0.28 |
| G40A U73A U96A | 0.01 |
| A42G A67G U73C A140U | 0.77 |
| G41A U85C U102A A142G | 0.19 |
| A42G U85A C120U U130A | 0.16 |
| A42U U47A A65G C116U | 0.02 |
| U39C C63U C103A | 0.3 |
| A42G C76U U85C A121U U143C | 0.31 |
| G41A U46C C131U | 1.26 |

| Variant | self-cleavage |
| --- | --- |
| A43G A124G U134C | 0.4 |
| A42G U62A U85C U102C U108C G122U A136U | 0 |
| U39C A69G C128U | 0.43 |
| A42G U115C A140G | 2.04 |
| A43G A65G U130C | 0 |
| G41A A67G A77G A138G | 0.64 |
| U39C U96A U102A | 0.06 |
| A42G U91C A117G | 0.84 |
| U39C G48A U108G | 0.57 |
| A42U A79G A136G | 2.08 |
| A42U C90U U104A | 0.04 |
| G41U U47C A94G | 0.21 |
| G40A G55U U96A | 0.02 |
| A42G C101U U132C | 1.27 |
| U39C A121G A140G A141G | 1.53 |
| U39C U73C U91C C99U | 0 |
| U39C U130C A142G | 1.78 |
| G41A A57U U73A A77U A107U | 0.04 |
| A42G U87A A92G C123U | 0.05 |
| A42G A67G A136G | 0.92 |
| A43C U45C C103U | 1.05 |
| G40U U45C A69G | 0.27 |
| U39G C90G A140U | 0.11 |
| A42G A43G A124G A141G | 2.04 |

| Variant | self-cleavage |
| --- | --- |
| A42G U73C A92U A121G | 0.77 |
| G40A U47C U91C U115A | 0.61 |
| A42G U81A C133U | 2.69 |
| G40U A79G A140G | 1.06 |
| A42U A124U U132C | 1.11 |
| A42G A77C U96A | 0.11 |
| A42G G89A U96C A129G | 0.03 |
| A42U A43G G44U | 0.97 |
| G40A U108C U134C | 0.86 |
| A42G A92G U143A | 0.18 |
| U39G C66U U73C | 0.08 |
| A42G U73C A79G A141C | 1.23 |
| G41A G82A A140G | 1.41 |
| U39C C71G U96C U104A | 0.12 |
| A42U A43G C99A | 0.87 |
| A42G U102C U104C | 0 |
| U39C G40U A129G A136G | 1.37 |
| U39C U52C U115C A138G | 0.8 |
| A42G A78G U115C | 2.98 |
| G40C A67U A136U | 0.12 |
| A42G A77G C146U | 1.2 |
| A42G A79C A117U A121G A140G | 0.92 |
| A42G U46C A67G G75A G105A U130A | 1.41 |
| A43G C56U U73C | 0.07 |

| Variant | self-cleavage |
| --- | --- |
| A42G U81A C99A A117G | 1.47 |
| U39C A77U U130C | 1.19 |
| A42U U81A U115C A121U | 0.69 |
| A42U A136U A142C C145U | 1.57 |
| G40U U134A G137A U143C | 0.97 |
| A42G A140G U143A | 0.84 |
| A42G U46C U119A A136U | 1.41 |
| G40A U52C G53A U100C | 0.83 |
| A42G G54A A107G | 0.44 |
| A43G A50U G55U A69G U73A U134C A138G | 0 |
| A43G A64G U134A | 0.49 |
| A42G A65G A140G | 0 |
| G40A A65G A78G A117G A142U | 0 |
| A43G C61U A69G U87C A136G A138U | 0.09 |
| G40U U45C A94U | 0.37 |
| A43G A50U U130C | 1.15 |
| A42G A43G A67U A117G | 0 |
| U39C U46A U47A U87C U96C U132A | 0 |
| A42G A67U A124U | 0.16 |
| G40A A50G U119A | 0.72 |
| A42G U119C C123U | 1.23 |
| A42G U134C A142G | 0.43 |
| A42G U73A U102C A138G | 1.76 |
| A42U U108A U115C U143C | 0.61 |

| Variant | self-cleavage |
| --- | --- |
| A43G A50G U100A | 0.48 |
| A42U U45C G80A | 1.95 |
| G40C A50G U96C | 0 |
| A42U U100C U130A | 2.01 |
| A42U U52C A79G U100A U119C U143A | 0.14 |
| A42G U52A U87A C131A | 0.14 |
| A42G A138G A141G | 1.64 |
| U39C U85C U96A U115A A141U | 0.16 |
| U39C A121U U143C | 1.09 |
| U39C A77C G80U | 0.99 |
| A42G G53A U108A G144U | 0.9 |
| A42G A117U C131A | 1.8 |
| G40A A43U U119C U132C | 1.62 |
| U39C G44A A57U U73C U130C | 0.11 |
| A43G C51A A69G U73A A129U | 0.31 |
| A42G U109A U134C | 1.05 |
| U39C U81A C128U | 0.97 |
| U39C U47G A142G | 1.05 |
| A42U U100A U130A | 1.27 |
| A42G A43G G54A | 0.27 |
| U39C C61A A78U | 0.05 |
| A42G U87A U112C | 0 |
| A42G U85C U115A A138U | 0.09 |
